The structures appear in SMILES notation. Among all 310,000 compounds or so, about 2,200 (0.71%) showed an effect of 50% or more. The effect is printed as a negative number. The list shows a part of the results.

The target of the experiment is human ether-à-go-go-related gene (hERG) potassium channel (human, UniProt Q12809). Put plainly: primary screen, population patch clamp on CHO cells stably expressing hERG.
Sequence of human ether-à-go-go-related gene (hERG) potassium channel (Q12809 whole entry, looked up): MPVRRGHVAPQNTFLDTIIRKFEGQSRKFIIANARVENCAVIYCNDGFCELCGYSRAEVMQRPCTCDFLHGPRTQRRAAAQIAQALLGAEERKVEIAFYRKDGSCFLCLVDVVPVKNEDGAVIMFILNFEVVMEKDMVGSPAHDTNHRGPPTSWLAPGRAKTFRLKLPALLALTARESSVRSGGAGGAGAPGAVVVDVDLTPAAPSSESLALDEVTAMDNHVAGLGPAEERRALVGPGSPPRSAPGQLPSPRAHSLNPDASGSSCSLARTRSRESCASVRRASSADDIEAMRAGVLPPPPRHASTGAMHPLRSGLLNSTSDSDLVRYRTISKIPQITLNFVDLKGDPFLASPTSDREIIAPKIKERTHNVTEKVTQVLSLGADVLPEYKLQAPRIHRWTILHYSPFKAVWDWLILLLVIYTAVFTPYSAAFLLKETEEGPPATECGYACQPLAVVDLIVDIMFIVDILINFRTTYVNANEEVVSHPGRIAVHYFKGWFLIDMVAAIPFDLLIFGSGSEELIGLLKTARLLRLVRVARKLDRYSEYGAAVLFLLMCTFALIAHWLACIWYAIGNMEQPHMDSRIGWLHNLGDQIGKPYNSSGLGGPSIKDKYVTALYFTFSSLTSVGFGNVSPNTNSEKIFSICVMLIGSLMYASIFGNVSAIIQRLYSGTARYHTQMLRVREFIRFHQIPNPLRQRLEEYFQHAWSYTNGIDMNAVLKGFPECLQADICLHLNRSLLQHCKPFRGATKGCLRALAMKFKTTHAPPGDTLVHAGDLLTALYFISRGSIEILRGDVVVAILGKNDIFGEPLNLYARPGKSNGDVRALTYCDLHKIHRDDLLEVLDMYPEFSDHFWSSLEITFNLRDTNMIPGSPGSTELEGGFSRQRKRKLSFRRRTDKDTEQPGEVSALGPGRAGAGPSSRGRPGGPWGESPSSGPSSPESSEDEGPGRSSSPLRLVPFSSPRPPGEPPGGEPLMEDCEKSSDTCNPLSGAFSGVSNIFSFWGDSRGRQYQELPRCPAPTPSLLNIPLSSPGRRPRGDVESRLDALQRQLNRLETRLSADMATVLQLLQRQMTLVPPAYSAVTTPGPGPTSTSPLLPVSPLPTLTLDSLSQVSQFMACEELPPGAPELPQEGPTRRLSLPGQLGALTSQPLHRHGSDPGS
With `COc1cc(OC)cc(-c2c(-c3cccs3)c3cc(-c4ccc(OC)c(F)c4)ccc3n2C)c1`, the “hERG current change (%, negative = inhibition) at 1uM” value is listed as 16%.
In the case of `CC1=NN(C(N)=S)C(=O)C1N=Nc1ccccc1C` (centres unmarked), the “hERG current change (%, negative = inhibition) at 1uM” value came to 26.9%.
As to `CCOC(=O)C(O)(c1ccc(NC(=S)NC(=O)c2ccc(Cl)cc2Cl)c(C)c1)C(F)(F)F` (centres unmarked), the “hERG current change (%, negative = inhibition) at 1uM” value was determined as 23%.
Turning to `CCn1cc(C(=O)Nc2ccc(C)c([N+](=O)[O-])c2)cn1`, the “hERG current change (%, negative = inhibition) at 1uM” value was found to be 11.3%.
For `O=C(COC(=O)C(O)c1ccccc1)NC12CC3CC(CC(C3)C1)C2` (centres unmarked), the “hERG current change (%, negative = inhibition) at 1uM” value is on record as -2.68%.
The value for `Cc1cc(NC(=O)c2cnn3c(C(F)(F)F)cc(-c4ccc(Br)cc4)nc23)no1` was 9.51%; that for `COc1ccccc1NC(=O)CSc1nnc(NC(=O)c2ccco2)s1` was 5.29%; that for `COc1ccccc1C(=O)Nc1ccccc1C(=O)Nc1ccccc1` was 15.2%.
Consider `O=C(O)COc1ccccc1/C=N/NC(=O)CSc1nc2ccccc2n1Cc1ccccc1`, for which the “hERG current change (%, negative = inhibition) at 1uM” value stood at 7.67%.
Take `Cc1cc(C)cc(COc2ccc3c(C)c(CC(=O)O)c(=O)oc3c2C)c1`: the “hERG current change (%, negative = inhibition) at 1uM” value is on record as -3.52%.
On to `Cc1ccc(S(=O)(=O)Nc2ccc(-c3nnc(SCC#N)n3C)cc2)cc1`, for which the “hERG current change (%, negative = inhibition) at 1uM” value is recorded as 1.27%.
The same measure for `CCOC(=O)c1ccc(NC(=O)N2CCN(c3ccccc3OC)CC2)cc1`: 4.65%; for `O=C(/C=C/c1ccco1)N(Cc1cccc(Cl)c1)C1CCS(=O)(=O)C1` (centres unmarked): 14.2%.
The value for `COc1cc(CC(=O)O)ccc1O` was -0.93%; that for `CCNC(=O)CC1C(=O)N(CC)C(=S)N1NC(=O)c1ccccc1` (centres unmarked) was 12.6%; that for `COc1ccc(N2C(=O)/C(=C/c3ccc([N+](=O)[O-])cc3)C=C2c2ccccc2)cc1` was 0.667%.
With `COc1ccc(NC(=O)CN(C)S(=O)(=O)c2cccc3nsnc23)cc1OC`, the “hERG current change (%, negative = inhibition) at 1uM” value is recorded as 2.99%.
For `C=CCNC(=S)NNC(=O)c1csc(CC)c1`, the “hERG current change (%, negative = inhibition) at 1uM” value is 6.13%.
In the case of `CCN(CC)CCCN(C(C)=O)c1nc(-c2cc(OC)ccc2OC)cs1.Cl`, the “hERG current change (%, negative = inhibition) at 1uM” value is -51%.
In the case of `COC(=O)c1c(-c2ccc(OC)c(OC)c2)csc1N`, the “hERG current change (%, negative = inhibition) at 1uM” value is listed as 17.5%.
In the case of `Cc1ccnc(NC(=O)c2ccc(NC(=O)CC3SC(N4CCCC4)=NC3=O)cc2)c1` (centres unmarked), the “hERG current change (%, negative = inhibition) at 1uM” value was determined as 9.92%.
With `CN(C)C=O.Oc1cccc2c(NC(=S)Nc3ccc(OC(F)F)cc3)cccc12`, the “hERG current change (%, negative = inhibition) at 1uM” value came out at 5.68%.
Turning to `COc1ccc(CNC2CCCCC2)cc1`, the “hERG current change (%, negative = inhibition) at 1uM” value was determined as 5.35%.
Take `O=C(CSc1ccc(-c2ccccc2)nn1)N1CCCCC1`: the “hERG current change (%, negative = inhibition) at 1uM” value was determined as 6.29%.
As to `O=C(CNC(=O)c1ccc(Cl)cc1Cl)NCC(=O)Nc1ccccc1N1CCOCC1`, the “hERG current change (%, negative = inhibition) at 1uM” value is recorded as -0.769%.
The value for `CC(C)(C)C(=O)Nc1ccc(C(=O)Nc2cccc(Oc3ccc(C(=O)O)c(C(=O)O)c3)c2)cc1` was 15%; that for `O=C(NN=C1CCCC1)c1ccc([N+](=O)[O-])cc1` was 3.89%.
With `O=C(Cc1ccccc1)Nc1ccccc1C(=O)N1CCCCCC1`, the “hERG current change (%, negative = inhibition) at 1uM” value was 3.51%.
Regarding `COCCOC(=O)c1[nH]c2c(c1C)C(=O)CC(c1ccc(F)cc1)C2` (centres unmarked), the “hERG current change (%, negative = inhibition) at 1uM” value is recorded as 7.64%.
Consider `COc1cc(/C=C2\CCc3ccccc3C2=O)cc(OC)c1OC`, for which the “hERG current change (%, negative = inhibition) at 1uM” value is 4.71%.
For the compound `Cc1cc(C)nc(SCC(=O)Nc2ccc(S(=O)(=O)N3CCCCC3)cc2)n1`, the “hERG current change (%, negative = inhibition) at 1uM” value was -8%.
The same measure for `COc1ccc([C@H]2CC(=O)C=C(c3ccc(F)nc3)C2)cc1OC`: 5.73%.
The value for `c1ccc(Cc2nn3c(-c4ccncc4)nnc3s2)cc1` was -9.42%; that for `COc1ccc(OC)c(NC(=O)c2cccc(N3C(=O)C4C5CCC(C5)C4C3=O)c2)c1` (centres unmarked) was 2.22%.
Turning to `CSc1nc(N)nc(SCC(=O)c2ccccc2)c1C#N`, the “hERG current change (%, negative = inhibition) at 1uM” value came to 2.61%.
For the compound `CCOC(=O)C1CN(S(=O)(=O)c2ccccc2)c2cc(S(=O)(=O)CC)ccc2O1` (centres unmarked), the “hERG current change (%, negative = inhibition) at 1uM” value came out at 7.58%.
The value for `COc1ccc(/C=N/NC(=O)c2ccncc2)cc1CN1CCCc2ccccc21` was 1.61%.
For the compound `CC(/C=N/NC(=O)c1ccncc1)=C\c1ccccc1`, the “hERG current change (%, negative = inhibition) at 1uM” value was 15.3%.
As for `COc1cccc(CN(C)C(=O)c2ccc(COc3ccc(Cl)cc3)cc2)c1OC`, the “hERG current change (%, negative = inhibition) at 1uM” value was found to be 4.55%.
The value for `Cc1ccc(-c2nnc(Nc3ccc(C(=O)N(C)C)cc3)c3ccccc23)cc1S(=O)(=O)NC(C)(C)CO` was 5.95%; that for `CCOC(=O)N1CCC(c2cc(=O)n3[nH]c(C)c(-c4ccc(F)cc4)c3n2)CC1` was 12.5%; that for `Cc1ccc(SC2CCN(C(=O)C3CCC(=O)N(C4CC4)C3)CC2)cc1` (centres unmarked) was -11.1%.
In the case of `CCOCc1[nH]c(=S)[nH]c(=O)c1Cc1ccc(OCC)cc1`, the “hERG current change (%, negative = inhibition) at 1uM” value is 15.2%.
Take `O=C(Nc1ccc2c(c1)OCO2)Nc1ccc2c(c1)OCO2`: the “hERG current change (%, negative = inhibition) at 1uM” value is 13.8%.

The values above are taken from PMC4336329 (PLoS ONE, 2015).
